Laboratory results taken from the supplement of paper PMC8728848.
The other results are listed elsewhere or left out.

Assays:
Assay in all cases: glycan array binding signal (z-score within array); higher = stronger binding
Conditions in all cases: glycan notation: IUPAC condensed, linker removed
[1] = target: Neu5Ac(a2-3)Gal(b1-4)GlcNAc(b1-3)[Neu5Ac(a2-3)Gal(b1-4)GlcNAc(b1-6)]GalNAc
Method in brief: (§1)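 Glycan array data came from 3228 arrays in the Consortium for Functional Glycomics database, and only arrays with an available protein sequence were kept. Glycan names were put into IUPAC-condensed notation, and columns mapping to the same glycan were averaged. The binding signal is a within-array Z-score, averaged across arrays of one protein sequence run at different concentrations or buffers and across linkers. A negative Z-score can be read as non-binding.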

[2] = target: Neu5Ac(a2-3)Gal(b1-4)GlcNAc(b1-6)GalNAc
Method in brief: as §1

[3] = target: Neu5Ac(a2-3)Gal(b1-4)GlcNAc(b1-6)[Gal(b1-3)]GalNAc
Method in brief: as §1

[4] = target: Neu5Ac(a2-3)Gal(b1-4)GlcNAc(b1-6)[Neu5Ac(a2-3)Gal(b1-3)]GalNAc
Method in brief: as §1

[5] = target: Neu5Ac(a2-3)Gal(b1-4)GlcNAc6S
Method in brief: as §1

[6] = target: Neu5Ac(a2-3)Gal(b1-4)[Fuc(a1-3)]GlcNAc
Method in brief: as §1

[7] = target: Neu5Ac(a2-3)Gal(b1-4)[Fuc(a1-3)]GlcNAc(b1-2)Man
Method in brief: as §1

[8] = target: Neu5Ac(a2-3)Gal(b1-4)[Fuc(a1-3)]GlcNAc(b1-3)Gal
Method in brief: as §1

[9] = target: Neu5Ac(a2-3)Gal(b1-4)[Fuc(a1-3)]GlcNAc(b1-3)Gal(b1-4)GlcNAc
Method in brief: as §1

[10] = target: Neu5Ac(a2-3)Gal(b1-4)[Fuc(a1-3)]GlcNAc(b1-3)Gal(b1-4)[Fuc(a1-3)]GlcNAc(b1-3)Gal(b1-4)[Fuc(a1-3)]GlcNAc
Method in brief: as §1

[11] = target: Neu5Ac(a2-3)Gal(b1-4)[Fuc(a1-3)]GlcNAc(b1-3)GalNAc
Method in brief: as §1

[12] = target: Neu5Ac(a2-3)Gal(b1-4)[Fuc(a1-3)]GlcNAc(b1-6)[Gal(b1-3)]GalNAc
Method in brief: as §1

[13] = target: Neu5Ac(a2-3)Gal(b1-4)[Fuc(a1-3)]GlcNAc(b1-6)[Neu5Ac(a2-3)Gal(b1-3)]GalNAc
Method in brief: as §1

[14] = target: Neu5Ac(a2-3)Gal(b1-4)[Fuc(a1-3)]GlcNAc6S
Method in brief: as §1

[15] = target: Neu5Ac(a2-3)Gal6S(b1-4)GlcNAc
Method in brief: as §1

[16] = target: Neu5Ac(a2-3)Gal6S(b1-4)[Fuc(a1-3)]GlcNAc
Method in brief: as §1

[17] = target: Neu5Ac(a2-3)GalNAc
Method in brief: as §1

[18] = target: Neu5Ac(a2-3)GalNAc(b1-4)GlcNAc
Method in brief: as §1

[19] = target: Neu5Ac(a2-3)[GalNAc(b1-4)]Gal(b1-4)Glc
Method in brief: as §1

[20] = target: Neu5Ac(a2-3)[GalNAc(b1-4)]Gal(b1-4)GlcNAc
Method in brief: as §1

[21] = target: Neu5Ac(a2-3)[GalNAc(b1-4)]Gal(b1-4)GlcNAc(b1-3)GalNAc
Method in brief: as §1

[22] = target: Neu5Ac(a2-3)[Neu5Ac(a2-6)]GalNAc
Method in brief: as §1

[23] = target: Neu5Ac(a2-6)Gal
Method in brief: as §1

[24] = target: Neu5Ac(a2-6)Gal(b1-3)GlcNAc(b1-3)[Gal(b1-4)GlcNAc(b1-6)]Gal(b1-4)Glc
Method in brief: as §1

[25] = target: Neu5Ac(a2-6)Gal(b1-4)Glc
Method in brief: as §1

[26] = target: Neu5Ac(a2-6)Gal(b1-4)GlcNAc
Method in brief: as §1

[27] = target: Neu5Ac(a2-6)Gal(b1-4)GlcNAc(b1-2)Man
Method in brief: as §1

[28] = target: Neu5Ac(a2-6)Gal(b1-4)GlcNAc(b1-2)Man(a1-3)Man(b1-4)GlcNAc(b1-4)GlcNAc
Method in brief: as §1

[29] = target: Neu5Ac(a2-6)Gal(b1-4)GlcNAc(b1-2)Man(a1-3)[Gal(b1-4)GlcNAc(b1-2)Man(a1-6)]Man(b1-4)GlcNAc(b1-4)GlcNAc
Method in brief: as §1

[30] = target: Neu5Ac(a2-6)Gal(b1-4)GlcNAc(b1-2)Man(a1-3)[GlcNAc(b1-2)Man(a1-6)]Man(b1-4)GlcNAc(b1-4)GlcNAc
Method in brief: as §1

[31] = target: Neu5Ac(a2-6)Gal(b1-4)GlcNAc(b1-2)Man(a1-3)[GlcNAc(b1-4)][Neu5Ac(a2-6)Gal(b1-4)GlcNAc(b1-2)Man(a1-6)]Man(b1-4)GlcNAc(b1-4)GlcNAc
Method in brief: as §1

[32] = target: Neu5Ac(a2-6)Gal(b1-4)GlcNAc(b1-2)Man(a1-3)[Man(a1-6)]Man(b1-4)GlcNAc(b1-4)GlcNAc
Method in brief: as §1

[33] = target: Neu5Ac(a2-6)Gal(b1-4)GlcNAc(b1-2)Man(a1-3)[Neu5Ac(a2-3)Gal(b1-4)GlcNAc(b1-2)Man(a1-6)]Man(b1-4)GlcNAc(b1-4)GlcNAc
Method in brief: as §1

[34] = target: Neu5Ac(a2-6)Gal(b1-4)GlcNAc(b1-2)Man(a1-3)[Neu5Ac(a2-6)Gal(b1-4)GlcNAc(b1-2)Man(a1-6)]Man(b1-4)GlcNAc(b1-4)GlcNAc
Method in brief: as §1

[35] = target: Neu5Ac(a2-6)Gal(b1-4)GlcNAc(b1-2)Man(a1-3)[Neu5Ac(a2-6)Gal(b1-4)GlcNAc(b1-2)Man(a1-6)]Man(b1-4)GlcNAc(b1-4)[Fuc(a1-6)]GlcNAc
Method in brief: as §1

[36] = target: Neu5Ac(a2-6)Gal(b1-4)GlcNAc(b1-2)Man(a1-6)Man(b1-4)GlcNAc(b1-4)GlcNAc
Method in brief: as §1

[37] = target: Neu5Ac(a2-6)Gal(b1-4)GlcNAc(b1-2)Man(a1-6)[Gal(b1-4)GlcNAc(b1-2)Man(a1-3)]Man(b1-4)GlcNAc(b1-4)GlcNAc
Method in brief: as §1

[38] = target: Neu5Ac(a2-6)Gal(b1-4)GlcNAc(b1-2)Man(a1-6)[GlcNAc(b1-2)Man(a1-3)]Man(b1-4)GlcNAc(b1-4)GlcNAc
Method in brief: as §1

[39] = target: Neu5Ac(a2-6)Gal(b1-4)GlcNAc(b1-2)Man(a1-6)[Man(a1-3)]Man(b1-4)GlcNAc(b1-4)GlcNAc
Method in brief: as §1

[40] = target: Neu5Ac(a2-6)Gal(b1-4)GlcNAc(b1-2)[Neu5Ac(a2-6)Gal(b1-4)GlcNAc(b1-4)]Man(a1-3)[GlcNAc(b1-4)][Neu5Ac(a2-6)Gal(b1-4)GlcNAc(b1-2)[Neu5Ac(a2-6)Gal(b1-4)GlcNAc(b1-6)]Man(a1-6)]Man(b1-4)GlcNAc(b1-4)GlcNAc
Method in brief: as §1

[41] = target: Neu5Ac(a2-6)Gal(b1-4)GlcNAc(b1-2)[Neu5Ac(a2-6)Gal(b1-4)GlcNAc(b1-4)]Man(a1-3)[GlcNAc(b1-4)][Neu5Ac(a2-6)Gal(b1-4)GlcNAc(b1-4)Man(a1-6)]Man(b1-4)GlcNAc(b1-4)GlcNAc
Method in brief: as §1

[42] = target: Neu5Ac(a2-6)Gal(b1-4)GlcNAc(b1-2)[Neu5Ac(a2-6)Gal(b1-4)GlcNAc(b1-6)]Man(a1-6)[Neu5Ac(a2-6)Gal(b1-4)GlcNAc(b1-2)Man(a1-3)][GlcNAc(b1-4)]Man(b1-4)GlcNAc(b1-4)GlcNAc
Method in brief: as §1

[43] = target: Neu5Ac(a2-6)Gal(b1-4)GlcNAc(b1-3)Gal(b1-3)GlcNAc
Method in brief: as §1

[44] = target: Neu5Ac(a2-6)Gal(b1-4)GlcNAc(b1-3)Gal(b1-4)GlcNAc
Method in brief: as §1

[45] = target: Neu5Ac(a2-6)Gal(b1-4)GlcNAc(b1-3)Gal(b1-4)GlcNAc(b1-2)Man(a1-3)[Neu5Ac(a2-6)Gal(b1-4)GlcNAc(b1-3)Gal(b1-4)GlcNAc(b1-2)Man(a1-6)]GalNAc
Method in brief: as §1

B1: LICBM33A (Lactococcus lactis), Q9CE94 (protein)
chain: MKKLLTGLLVAAGLLSVSLLIKTDTVSAHGYVQSPPARGYQGQLDSQSLGWTAAFNIYGNVISNPQSLEAPKGFPECGPADGRIASANGGLGQIGDFVLDNQTSSRWKKTSISTGSNIFTWKYTAPHKTTKWHYYMTKTGWDQNAPLKHSELELIGTINHDGSPATNNLSHTINIPTDRSGYHIVLAVWDVADTSNAFYNVIDINVNNKNASSQVFGPFL
glycan array binding signal (z-score) [1]: 1.75 | glycan array binding signal (z-score) [2]: 0.801 | glycan array binding signal (z-score) [3]: -0.237 | glycan array binding signal (z-score) [4]: -0.471 | glycan array binding signal (z-score) [5]: -0.6 | glycan array binding signal (z-score) [6]: -0.373 | glycan array binding signal (z-score) [7]: -1.11 | glycan array binding signal (z-score) [8]: -0.62 | glycan array binding signal (z-score) [9]: -0.445 | glycan array binding signal (z-score) [10]: -0.651 | glycan array binding signal (z-score) [11]: 0.278 | glycan array binding signal (z-score) [12]: 0.021 | glycan array binding signal (z-score) [13]: 2.15 | glycan array binding signal (z-score) [14]: 1.8 | glycan array binding signal (z-score) [15]: -0.469 | glycan array binding signal (z-score) [16]: -0.186 | glycan array binding signal (z-score) [17]: -1.08 | glycan array binding signal (z-score) [18]: 0.769 | glycan array binding signal (z-score) [19]: -0.684 | glycan array binding signal (z-score) [20]: -0.305 | glycan array binding signal (z-score) [21]: -1.36 | glycan array binding signal (z-score) [22]: 0.408 | glycan array binding signal (z-score) [23]: -0.155 | glycan array binding signal (z-score) [24]: -0.38 | glycan array binding signal (z-score) [25]: -0.251 | glycan array binding signal (z-score) [26]: 0.468 | glycan array binding signal (z-score) [27]: -0.361 | glycan array binding signal (z-score) [28]: -0.027 | glycan array binding signal (z-score) [29]: -0.362 | glycan array binding signal (z-score) [30]: -0.214 | glycan array binding signal (z-score) [31]: -0.25 | glycan array binding signal (z-score) [32]: -0.403 | glycan array binding signal (z-score) [33]: -0.229 | glycan array binding signal (z-score) [34]: 0.798 | glycan array binding signal (z-score) [35]: 4.31 | glycan array binding signal (z-score) [36]: -0.632 | glycan array binding signal (z-score) [37]: -0.357 | glycan array binding signal (z-score) [38]: 4.26 | glycan array binding signal (z-score) [39]: -0.79 | glycan array binding signal (z-score) [40]: -0.155 | glycan array binding signal (z-score) [41]: 1.21 | glycan array binding signal (z-score) [42]: -0.179 | glycan array binding signal (z-score) [43]: -0.404 | glycan array binding signal (z-score) [44]: -0.043 | glycan array binding signal (z-score) [45]: 4.82
